This is one part of the list.
Tested on: PF3D7_0420300 AP2 domain 1 (GST-tagged)
Assay: gcPBM binding intensity (ln(normalized median fluorescence intensity)); higher = stronger DNA binding
In short: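 GST-tagged P. falciparum DNA-binding domains, expressed in E. coli (about 25 μg on average), were applied for 1 h to an Agilent 4 × 180k array of primer-extended double-stranded 36-bp intergenic genomic probes plus negative controls. The binding buffer was 1× PBS with 1% milk, 0.2 mg/ml BSA, 0.5% salmon testes DNA and 0.03% Triton X-100. Bound protein was detected with Alexa488 anti-GST antibody and scanned at 488 nm. Binding intensity is the highest Masliner-normalised natural-log median intensity across replicate spots of either probe orientation.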

Row | Sequence | gcPBM binding intensity (ln)
1 | ATTCATATTAAATATATATATATATATATATATATA [CACACA_negctrl_site484] | 8.96
2 | GAAGAAAAAGAAAAAAGTACATATATTATATTATAA [XGTACX_site7870] | 9.04
3 | GTTTTTAAATATGCCATACACACTACTATATAATAA [CACACA_site1927] | 9.53
4 | TAATATATTAATTTTTGTACTTAATTATATGTTTTT [XGTACX_site5654] | 9.31
5 | TAATATATTATGAGGGGTACATAATATGGTTTATTG [XGTACX_site8301] | 9.34
6 | ATATTTATATTTATGTGTACATATGAAATAATTATT [XGTACX_site7765] | 9.14
7 | ATATCTTATATCTTCACACATACACAATAAATACAT [CACACA_site5028] | 9.55
8 | CTAAGAAGTATTTACACACCAACAAGGCGAAAAAAA [CACACA_site2945] | 9.58
9 | AATGTATTCTCTCATGCACACTTTCTTTAAGGGACC [CACACA_site5245] | 9.31
10 | ATTTTTATTTTATATACACACAATAATACTAGAATA [CACACA_site7810] | 9.38
11 | AGATATATAAAATATACACACAGTAATATTTATATA [CACACA_site6767] | 9.31
12 | ATATATATCTACATATGTACATATATACATTACACA [XGTACX_site7210] | 9.41
13 | ATTTCATATGGTCAACGTACTCATGCATCCCTCCTT [XGTACX_site437] | 9.22
14 | AATTATATTTGAAATACACACATAAAAACCATATAG [CACACA_site7598] | 9.73
15 | TCAAAAAAGACACACCGTACATACTATTTGGACAGG [XGTACX_site7699] | 9.56
16 | TTTATTTTATCATTTGCACACGCACCCCCACATAAA [CACACA_site8007] | 9.67
17 | TTCTAAATTAATAATACACACTTGCTAAAATCATTA [CACACA_site5733] | 9.09
18 | TTCTTATATTGTACAGTACACACCTTTATAATGTTA [CACACA_site7953] | 9.66
19 | ATATAAATAACGTGTACACACATATGTATTTATATA [CACACA_site6520] | 9.5
20 | ATTCTCCATGTTTGATGTACTCATATGACGACGGAG [XGTACX_site4923] | 9.23
21 | TTTTTATGATTATACTTATATAATTTCATGATTGAA [CACACA_negctrl_site228] | 8.98
22 | AATATTTCTATATGAACATGCAATGTATCTTTTTAT [TGCATGCA_site738] | 9.13

Row | Sequence | gcPBM binding intensity (ln)
23 | AATACTTACCAAAATACACACACACCCAAAATATAT [CACACA_site8559] | 10.1
24 | AAGATGAACCTTTACACATGCAACAAAAAATATACA [TGCATGCA_site166] | 9.43
25 | ATCAACATTATGTTTAGTACTTAGTGAATTGTTAAT [XGTACX_site4913] | 9.22
26 | ATATATATATATATATGTACATATTTACATTTTGTA [XGTACX_site3529] | 9.17
27 | AATAAAGGAGCCTATGAACACACACCGGTACATATA [CACACA_site9352] | 9.83
28 | TATACACATTCGCGTTGTACAAAAAAAAAAAAAAAG [XGTACX_site2880] | 9.05
29 | ATAAAAAAAAGAAAAACACACACATATATATATATA [CACACA_site8243] | 9.61
30 | ATAATAATAGTAATATGTACATATATATATATATAT [XGTACX_site7437] | 9.53
31 | ATAATAAAATAAATCACACATAATATAATGTAATAT [CACACA_site6144] | 9.55
32 | ACAAAAAAATAAAATATATATATATATATAATATAT [CACACA_negctrl_site805] | 9.2
33 | GAATTTTTGACGATATAGGAAATAATTATCCTGAAG [XGTACX_negctrl_site61] | 8.89
34 | CTGTTAATTATATATTGTACAAAAGATATGATTATA [XGTACX_site6927] | 9.04
35 | TGGACCAAACGACAAAAAAAAAGCAGAAAACAAAAA [GTGCAC_negctrl_site693] | 9.49
36 | AAATAAAGAATATAAATACACACTTAAATATATATT [CACACA_site4007] | 9.59
37 | TTTTTAAAAAAAAAAAAATAAAAAAAAAAAAAATAT [XGTACX_negctrl_site7] | 9
38 | ATTTATATATTTATATGTACATATCTATACATATAT [XGTACX_site7580] | 9.41
39 | ATTAAGTCTTATATTACACACGACATTGTAATGTAA [CACACA_site528] | 9.29
40 | ATTCCACTGTTTTAGTGTACTGGTCGTTTTTTTTTT [XGTACX_site1738] | 9.91
41 | AATTTTTTATACACAAGTACAAACGCGTAGTCACTT [XGTACX_site2458] | 9.19
42 | AAAAATAAAACAATTACACACATAATTTTATTTTTA [CACACA_site928] | 9.61
43 | TCCAAAATATCCTTCACACACGAACAGTTTCATTTA [CACACA_site5511] | 9.54
44 | ATATATATATATATATGTACATATAATTTTTTTTTT [XGTACX_site6948] | 9.06

Row | Sequence | gcPBM binding intensity (ln)
45 | TTTATATTAATTTGTGTAAATGCATATGATGAGCAT [XGTACX_negctrl_site254] | 9.03
46 | TAAATTTTTTTTTTGATGCACTTAGTTATTATATTT | 9.33
47 | ATAACAATTATTTATCTACACACTTTTATGTTATTT [CACACA_site7886] | 9.74
48 | AATGGCAAAATAGGCACACACACATATACAGATATA [CACACA_site4726] | 10.1
49 | AAATGCGCCATGTGTACACATATATATATATATATA [CACACA_site4649] | 9.48
50 | TACATATATAAAAATTGTACACTTCATAAGAAAAAA [XGTACX_site4347] | 9.14
51 | TTAAATAAGTTCTTCACACATATATATATATATATA [CACACA_site4742] | 9.22
52 | AAAATTTTTTAACACTGTACTTGTAATATTAAAACT [XGTACX_site8369] | 9.14
53 | GTTTTAAAATTAAATATTATGGCATAATTCAAGAAA [GTGCAC_negctrl_site721] | 8.88
54 | AAAAAAATTCTTGGCGCACACACTTTAAAAATTAAA [CACACA_site597] | 9.24
55 | AAGGATTACAAAAAAAGTACAAATGGATTTTTTCCC [XGTACX_site8905] | 9.16
56 | CTTACAAATAAACAACGTACTTATTCGAATTATGCT [XGTACX_site2431] | 9.23
57 | CATACAGACGAACACACACACATATAAATATAAATA [CACACA_site6443] | 9.91
58 | AAATATTATATATATACACACACACCGGCATGCACA [CACACA_site7916] | 9.97
59 | AACCACATGGTGTAATGTACATTACCTTAACAATAA [XGTACX_site3055] | 9.23
60 | TATTATTTTTTTTTTTGTACATATATGTATATATAT [XGTACX_site8471] | 9.13
61 | TATAATAAAATTGGTAGTACATTAATTTATGTATAG [XGTACX_site3059] | 9.14
62 | TTTTTTTTTTCTTAGGTGCAAAAAATAAGTATATAT [GTGCAC_site9394] | 8.99
63 | AAAAAAAAAAGAACCCGTACATAAATAATATATATA [XGTACX_site164] | 9.62
64 | TTAATTACATGTTATTGTACGTATTTTCTATCTATC [XGTACX_site844] | 9.41
65 | AAAAAAAAAAAAGAAACACACACATTTGTATATAAT [CACACA_site8648] | 9.84
66 | TATAGTTATATTAGAAGTACTTCATTTTAACATATT [XGTACX_site7101] | 9.14

Row | Sequence | gcPBM binding intensity (ln)
67 | GAAACATAAAAATATATTGAAATAGTATCATGGGTA [CACACA_negctrl_site352] | 9.43
68 | TTTTTTTTGTATTAATGTACATATAACTTTTTTTTT [XGTACX_site7903] | 9.2
69 | TAAAAAATAAAATAATGTACATATGAATTATATATT [XGTACX_site8398] | 9.24
70 | CATTATAAGAAACACACACACATATATATATATATA [CACACA_site1051] | 9.73
71 | AAAAAGAAGAATATATGTACACAAAATTTATGAGTT [XGTACX_site8609] | 9.43
72 | AAAAAAAAAAATATATTATTTTACTTGTTTATTTTA [CACACA_negctrl_site1447] | 9.07
73 | TAAACCAAACAATTATGTATAAGATGTATATATATA [GTGCAC_negctrl_site438] | 9.37
74 | AAATTCTTAACCCAACGTACATATAATAAATTCTTA [XGTACX_site8538] | 9.1
75 | ATTCCCTTAAGAAACTGTACAAAACTTTCTTCGATT [XGTACX_site775] | 9.11
76 | TATACATAAATTATATGTACTGAAAATACATAATTA [XGTACX_site3626] | 8.99
77 | GTGTGTGTATATATTTGTACATATATTTAAACATAT [XGTACX_site1074] | 9.73
78 | GGTAGGTGGATATATACACACATATATTATAGATAT [CACACA_site7021] | 9.65
79 | CACAGATATATACATACACACATATATACACATATA [CACACA_site6323] | 9.72
80 | ATCGAGAAAAATAAAATAATACAATTTCTTTAAATA [XGTACX_negctrl_site162] | 8.96
81 | TGACATAAATTTAATACACACACAAAGAAAAAAAAA [CACACA_site9354] | 9.9
82 | TTTAAAAAAAAAAAAAAAAATTCTACATGTAATTTA [CACACA_negctrl_site1205] | 8.64
83 | AGAAGAAAAGAAATATGTACATAAACGTCTGAACTA [XGTACX_site1699] | 9.37
84 | ATAACAAATATGATAGCATGCTACATATTACAACTT [TGCATGCA_site524] | 9.38
85 | GTTCCATATATTACATGTACATATTTTTACATTTAA [XGTACX_site660] | 9.63
86 | TGATTAATAGCAGGTAGTACTATAATAATATAAATA [XGTACX_site2776] | 9.16
87 | TTTAAACTAGAACAAGTGCAGATATGTATAATAATA | 9.17
88 | AAGAAAAGATATATATATAAATATATATATATATAT [TGCATGCA_negctrl_site353] | 9.01

— the supplement of paper PMC11417369
